Experimental findings from article PMC4242493 are described below.

The list shows a part of the results. The list includes weakly bound sequences.

The target of this experiment is MaxL homodimer (UniProt P61244). Nature of the experiment: universal protein-binding microarray (PBM). The settings on record: PBS-based mixture, 10 nM His-tagged protein dimer, 2% milk, 200 ng/uL BSA, 50 ng/uL salmon testes DNA, 0.02% TX-100; detection with Alexa 488 anti-His …; high values mean tight binding; most listed sequences are background and not binding sites; double strand, one strand shown.
Sequence of UniProt P61244 (P61244 whole entry): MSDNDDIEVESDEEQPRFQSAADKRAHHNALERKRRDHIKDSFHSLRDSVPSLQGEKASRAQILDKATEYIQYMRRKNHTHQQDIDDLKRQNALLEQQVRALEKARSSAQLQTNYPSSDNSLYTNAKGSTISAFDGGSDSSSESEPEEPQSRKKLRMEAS
Regarding GCTTGCAC, the binding signal (normalized occupancy) was 0.0699.

With CCTTTAGC, the binding signal (normalized occupancy) is 0.0691.

GAATCCTC: the binding signal (normalized occupancy) was determined as 0.0757.

In the case of AAGCGTAA, the binding signal (normalized occupancy) came out at 0.0698.

Regarding GACCATGC, the binding signal (normalized occupancy) was 0.109.

Consider AAGTTCCA, for which the binding signal (normalized occupancy) was found to be 0.0736.

With AATCAAAC, the binding signal (normalized occupancy) came to 0.0782.

For AGTACCGA, the binding signal (normalized occupancy) is 0.0717.

With TGCTGACA, the binding signal (normalized occupancy) came out at 0.0838.

For the sequence AAATAATA, the binding signal (normalized occupancy) was determined as 0.0784.

As for AGCGGAAA, the binding signal (normalized occupancy) came to 0.0723.

For AATGCGGC, the binding signal (normalized occupancy) came to 0.0814.

On to GATCAGGC, for which the binding signal (normalized occupancy) was 0.0778.

On to AAGCCGAA, for which the binding signal (normalized occupancy) came to 0.0699.

For the sequence CGACTGTC, the binding signal (normalized occupancy) came out at 0.0718.

As to AACCCCCT, the binding signal (normalized occupancy) stood at 0.0759.

ATCCAGCC: the binding signal (normalized occupancy) was 0.0742.

Consider ATCTCGTG, for which the binding signal (normalized occupancy) amounted to 0.0991.

ATCCTAGG: the binding signal (normalized occupancy) was 0.0715.

With AGAGTATC, the binding signal (normalized occupancy) stood at 0.0827.

Consider CTTGATGA, for which the binding signal (normalized occupancy) came out at 0.0755.

Turning to CCCCGGAG, the binding signal (normalized occupancy) came out at 0.068.

With CTCATATA, the binding signal (normalized occupancy) was found to be 0.087.

GTAAGCTA: the binding signal (normalized occupancy) worked out at 0.0744.

Consider GACCCGGC, for which the binding signal (normalized occupancy) came to 0.0707.

For the sequence TCTCGGAA, the binding signal (normalized occupancy) stood at 0.0691.

As to AATGGAAT, the binding signal (normalized occupancy) came to 0.0715.

On to AGCATCAC, for which the binding signal (normalized occupancy) worked out at 0.0771.

On to ACCCGCAG, for which the binding signal (normalized occupancy) was 0.0663.

Consider GAACCACC, for which the binding signal (normalized occupancy) turned out to be 0.077.

On to CCCCCTAC, for which the binding signal (normalized occupancy) was 0.0773.

For the sequence CGTAACGA, the binding signal (normalized occupancy) was 0.0718.

Turning to AGTGTGGA, the binding signal (normalized occupancy) came to 0.0843.

On to CTCCAGCC, for which the binding signal (normalized occupancy) turned out to be 0.0701.

For the sequence GCTGTGCC, the binding signal (normalized occupancy) came to 0.0741.

TCCATACA: the binding signal (normalized occupancy) was 0.0868.

Take ACGAAAGC: the binding signal (normalized occupancy) is 0.0763.

For the sequence GGTAATTA, the binding signal (normalized occupancy) was determined as 0.0776.

CGTTCGCA: the binding signal (normalized occupancy) is 0.0739.

Regarding AGCCGTAG, the binding signal (normalized occupancy) was 0.0716.

As to TCTTCAAA, the binding signal (normalized occupancy) was 0.0703.

With AGCGATAG, the binding signal (normalized occupancy) stood at 0.0742.

Regarding CTTCGCAA, the binding signal (normalized occupancy) came to 0.0722.

Turning to GTCTCCAA, the binding signal (normalized occupancy) was determined as 0.0767.

On to CCCCGAAC, for which the binding signal (normalized occupancy) is 0.0734.

As for AGTGCCAA, the binding signal (normalized occupancy) amounted to 0.0718.

For AAATTGAT, the binding signal (normalized occupancy) came out at 0.0763.

Turning to TCCGCGGA, the binding signal (normalized occupancy) is 0.0687.

As for ATGGCCGC, the binding signal (normalized occupancy) worked out at 0.0772.

As for GAAGGCCC, the binding signal (normalized occupancy) came to 0.0695.

As to AAACCCAA, the binding signal (normalized occupancy) stood at 0.0746.

For the sequence AAGCTCAG, the binding signal (normalized occupancy) was determined as 0.067.

For the sequence AAGACTCC, the binding signal (normalized occupancy) amounted to 0.0677.

As to AGTTGGGG, the binding signal (normalized occupancy) was 0.0748.

With TACTCGGA, the binding signal (normalized occupancy) was 0.0718.

As for ACACTGTG, the binding signal (normalized occupancy) turned out to be 0.0758.

Turning to ACCACCGT, the binding signal (normalized occupancy) worked out at 0.0757.

Take CTCGTAAC: the binding signal (normalized occupancy) was 0.0752.

Regarding CATGGTGA, the binding signal (normalized occupancy) was found to be 0.094.

Turning to GATATTAC, the binding signal (normalized occupancy) was determined as 0.0774.

With CGCGCGAC, the binding signal (normalized occupancy) was determined as 0.0761.

For the sequence TACCCCAA, the binding signal (normalized occupancy) is 0.0766.

Turning to ATCATGGG, the binding signal (normalized occupancy) came to 0.0858.

CGTGAGTC: the binding signal (normalized occupancy) was 0.0749.

Turning to AAAGAGAT, the binding signal (normalized occupancy) worked out at 0.0732.

Consider TCAGGGCA, for which the binding signal (normalized occupancy) was 0.0701.

As for AATGCGAG, the binding signal (normalized occupancy) came to 0.0746.

With AGGTATTA, the binding signal (normalized occupancy) was determined as 0.0767.

For the sequence ACTCGCGA, the binding signal (normalized occupancy) was 0.077.

For the sequence AAATTTTA, the binding signal (normalized occupancy) came to 0.0696.

For the sequence AATTCGCC, the binding signal (normalized occupancy) is 0.0696.

Regarding ATCCGACA, the binding signal (normalized occupancy) worked out at 0.0825.

For AGCAAGAT, the binding signal (normalized occupancy) turned out to be 0.0771.

For AAGCAGCG, the binding signal (normalized occupancy) was found to be 0.0796.

For AAAAATAT, the binding signal (normalized occupancy) turned out to be 0.0782.

Consider ATGTCCGA, for which the binding signal (normalized occupancy) came to 0.0845.

Take ATCTAGTC: the binding signal (normalized occupancy) was found to be 0.0749.

ACGAGGCA: the binding signal (normalized occupancy) amounted to 0.0852.

With CGGTCCAA, the binding signal (normalized occupancy) came to 0.0678.

AATCGCTC: the binding signal (normalized occupancy) is 0.0703.

For the sequence AATGCCGT, the binding signal (normalized occupancy) came to 0.0803.

Take AGTTAACC: the binding signal (normalized occupancy) is 0.0794.

In the case of AAGGCGAG, the binding signal (normalized occupancy) is 0.0697.

Take GATAAAGA: the binding signal (normalized occupancy) is 0.0781.

For the sequence CCTTATAC, the binding signal (normalized occupancy) is 0.0794.

In the case of AGTTCGCG, the binding signal (normalized occupancy) worked out at 0.0727.

Regarding AACTTCGG, the binding signal (normalized occupancy) came to 0.0719.

For the sequence CACTGTCA, the binding signal (normalized occupancy) is 0.0794.

Consider CCTATCTA, for which the binding signal (normalized occupancy) was determined as 0.0779.

As for CGTCTTTA, the binding signal (normalized occupancy) is 0.0718.

CCCTAAGG: the binding signal (normalized occupancy) turned out to be 0.0735.

For CGAGATAG, the binding signal (normalized occupancy) came to 0.0734.

Take CACCGCTC: the binding signal (normalized occupancy) was 0.0735.

On to AATCGCAG, for which the binding signal (normalized occupancy) was found to be 0.0687.

As to AATCGGAT, the binding signal (normalized occupancy) came to 0.0725.

Consider GTCATCAC, for which the binding signal (normalized occupancy) was 0.0823.

As to CCCCCCGG, the binding signal (normalized occupancy) came out at 0.0663.

Turning to AGGACCTA, the binding signal (normalized occupancy) was 0.0709.

As for CATGCCAC, the binding signal (normalized occupancy) is 0.0989.

With GGAACTAC, the binding signal (normalized occupancy) came out at 0.0712.

In the case of GAAGGTAC, the binding signal (normalized occupancy) came out at 0.0718.

Take CCTTCACA: the binding signal (normalized occupancy) worked out at 0.0875.

On to AGAATAGA, for which the binding signal (normalized occupancy) was 0.0729.

As to GCGATGCC, the binding signal (normalized occupancy) came to 0.0693.

In the case of ATTGGCAA, the binding signal (normalized occupancy) was found to be 0.0805.

In the case of ACTAGAGT, the binding signal (normalized occupancy) was 0.0743.

As for ACACTACG, the binding signal (normalized occupancy) came to 0.0754.

In the case of ACCCCTAA, the binding signal (normalized occupancy) came to 0.0769.

As for AGCCCTAA, the binding signal (normalized occupancy) was determined as 0.0665.

With GCTTGGCA, the binding signal (normalized occupancy) was found to be 0.0766.

Turning to ATTACGCA, the binding signal (normalized occupancy) stood at 0.0804.

With CTATTGGC, the binding signal (normalized occupancy) turned out to be 0.0773.

AAGTGATC: the binding signal (normalized occupancy) was 0.0794.

CCAGGCAA: the binding signal (normalized occupancy) was found to be 0.0705.

For CTTAGCAC, the binding signal (normalized occupancy) is 0.0791.

In the case of CGGTGGGA, the binding signal (normalized occupancy) is 0.0736.

As for ACTCAAGA, the binding signal (normalized occupancy) was 0.0686.

As for ATAACAGA, the binding signal (normalized occupancy) stood at 0.0812.

In the case of ACGTTATA, the binding signal (normalized occupancy) came out at 0.0842.

Turning to AGTTAGGG, the binding signal (normalized occupancy) worked out at 0.0757.

In the case of GGTTAGAA, the binding signal (normalized occupancy) is 0.0724.

Consider CGGCGTGA, for which the binding signal (normalized occupancy) was 0.0839.

AGAACCTG: the binding signal (normalized occupancy) is 0.0754.

As for CAAGCTAA, the binding signal (normalized occupancy) was 0.0734.

For AGCACCGA, the binding signal (normalized occupancy) turned out to be 0.07.

Consider ACGGTTAG, for which the binding signal (normalized occupancy) was 0.072.

Regarding ACTAGCCG, the binding signal (normalized occupancy) was 0.0653.

Regarding CATCGTTC, the binding signal (normalized occupancy) is 0.0714.

Regarding AACCCGAA, the binding signal (normalized occupancy) worked out at 0.0754.

In the case of AGACCGAT, the binding signal (normalized occupancy) turned out to be 0.0735.

Consider GCAAGGCA, for which the binding signal (normalized occupancy) is 0.075.

AACAGAGA: the binding signal (normalized occupancy) amounted to 0.0746.

Turning to GTAAGGAC, the binding signal (normalized occupancy) amounted to 0.0678.

For CACGACGC, the binding signal (normalized occupancy) came to 0.0777.

Consider AGCCGGCC, for which the binding signal (normalized occupancy) stood at 0.0666.

For CTGACTGC, the binding signal (normalized occupancy) was found to be 0.0712.

On to ACTGCGCT, for which the binding signal (normalized occupancy) was determined as 0.0743.

As to CCCGTTCG, the binding signal (normalized occupancy) was 0.0713.

Take AACTAGGG: the binding signal (normalized occupancy) was 0.0777.

As to CGACTTGC, the binding signal (normalized occupancy) worked out at 0.0716.

Consider GGGTTCTA, for which the binding signal (normalized occupancy) turned out to be 0.0754.

For CTGGTAAA, the binding signal (normalized occupancy) is 0.0724.

As for GTTTGTTA, the binding signal (normalized occupancy) worked out at 0.075.

Consider CTTTTTGA, for which the binding signal (normalized occupancy) was found to be 0.0761.

On to GATGACCC, for which the binding signal (normalized occupancy) turned out to be 0.0786.

For GACGTTAA, the binding signal (normalized occupancy) stood at 0.0763.

On to TAGCAGGA, for which the binding signal (normalized occupancy) came to 0.0736.

Consider CTATACCA, for which the binding signal (normalized occupancy) was found to be 0.0839.

Turning to CAGAGAGA, the binding signal (normalized occupancy) is 0.0695.

Take AAATGTCA: the binding signal (normalized occupancy) amounted to 0.0797.

TCGGTTAA: the binding signal (normalized occupancy) amounted to 0.0699.

Take GGAGCGTA: the binding signal (normalized occupancy) came out at 0.0706.

With CGGAGATC, the binding signal (normalized occupancy) came out at 0.0714.

Regarding CAGTGTCA, the binding signal (normalized occupancy) came out at 0.0789.

As for GAGCCCGA, the binding signal (normalized occupancy) came to 0.0736.

Turning to ACGGGGAG, the binding signal (normalized occupancy) was 0.0725.

In the case of GCATAGGA, the binding signal (normalized occupancy) came out at 0.0788.

Take TATTTGGA: the binding signal (normalized occupancy) was 0.0774.

In the case of GACCCCCA, the binding signal (normalized occupancy) turned out to be 0.08.

With ATGCATGG, the binding signal (normalized occupancy) came out at 0.0969.

As for AGATCCTA, the binding signal (normalized occupancy) stood at 0.0763.

For the sequence AAACGACT, the binding signal (normalized occupancy) was 0.0699.

In the case of GGGACTGA, the binding signal (normalized occupancy) amounted to 0.069.

Take GGACCCCC: the binding signal (normalized occupancy) was 0.0772.

Consider AGTATGCG, for which the binding signal (normalized occupancy) is 0.077.

With CACAGATC, the binding signal (normalized occupancy) amounted to 0.0797.

For AGTACACG, the binding signal (normalized occupancy) is 0.0869.

Take CATATTAA: the binding signal (normalized occupancy) worked out at 0.0818.

For the sequence CTTAGGCA, the binding signal (normalized occupancy) came out at 0.0777.

As to AAACGGAA, the binding signal (normalized occupancy) was 0.068.

As for CTCAGCAA, the binding signal (normalized occupancy) came out at 0.0691.

Regarding CATTTGTC, the binding signal (normalized occupancy) is 0.0834.
